Data on one molecule can be found in patent publication US9943596B2, “Combination therapy using dual inhibitor of c-MET and EGFR and IGF-1R inhibitor” (Samsung Electronics Co., Ltd., priority 2014, dated 2018).

Common to all, as to settings: among huAbF46-H4-A1, -A2, -A3, -A5
For test [1], the target named is T1, c-Met (Homo sapiens, UniProt P08581). The test is described as follows: affinity for c-Met of affinity-matured antibodies. The test is classed as binding.
Test [2] deals with Akt phosphorylation. Description: Akt phosphorylation by affinity-matured antibodies. It is filed as cell-based.
Test [3] concerns the target T1, c-Met. Description: c-Met degradation by affinity-matured antibodies. The test is classed as cell-based.

T1 sequence (P08581 25-1390): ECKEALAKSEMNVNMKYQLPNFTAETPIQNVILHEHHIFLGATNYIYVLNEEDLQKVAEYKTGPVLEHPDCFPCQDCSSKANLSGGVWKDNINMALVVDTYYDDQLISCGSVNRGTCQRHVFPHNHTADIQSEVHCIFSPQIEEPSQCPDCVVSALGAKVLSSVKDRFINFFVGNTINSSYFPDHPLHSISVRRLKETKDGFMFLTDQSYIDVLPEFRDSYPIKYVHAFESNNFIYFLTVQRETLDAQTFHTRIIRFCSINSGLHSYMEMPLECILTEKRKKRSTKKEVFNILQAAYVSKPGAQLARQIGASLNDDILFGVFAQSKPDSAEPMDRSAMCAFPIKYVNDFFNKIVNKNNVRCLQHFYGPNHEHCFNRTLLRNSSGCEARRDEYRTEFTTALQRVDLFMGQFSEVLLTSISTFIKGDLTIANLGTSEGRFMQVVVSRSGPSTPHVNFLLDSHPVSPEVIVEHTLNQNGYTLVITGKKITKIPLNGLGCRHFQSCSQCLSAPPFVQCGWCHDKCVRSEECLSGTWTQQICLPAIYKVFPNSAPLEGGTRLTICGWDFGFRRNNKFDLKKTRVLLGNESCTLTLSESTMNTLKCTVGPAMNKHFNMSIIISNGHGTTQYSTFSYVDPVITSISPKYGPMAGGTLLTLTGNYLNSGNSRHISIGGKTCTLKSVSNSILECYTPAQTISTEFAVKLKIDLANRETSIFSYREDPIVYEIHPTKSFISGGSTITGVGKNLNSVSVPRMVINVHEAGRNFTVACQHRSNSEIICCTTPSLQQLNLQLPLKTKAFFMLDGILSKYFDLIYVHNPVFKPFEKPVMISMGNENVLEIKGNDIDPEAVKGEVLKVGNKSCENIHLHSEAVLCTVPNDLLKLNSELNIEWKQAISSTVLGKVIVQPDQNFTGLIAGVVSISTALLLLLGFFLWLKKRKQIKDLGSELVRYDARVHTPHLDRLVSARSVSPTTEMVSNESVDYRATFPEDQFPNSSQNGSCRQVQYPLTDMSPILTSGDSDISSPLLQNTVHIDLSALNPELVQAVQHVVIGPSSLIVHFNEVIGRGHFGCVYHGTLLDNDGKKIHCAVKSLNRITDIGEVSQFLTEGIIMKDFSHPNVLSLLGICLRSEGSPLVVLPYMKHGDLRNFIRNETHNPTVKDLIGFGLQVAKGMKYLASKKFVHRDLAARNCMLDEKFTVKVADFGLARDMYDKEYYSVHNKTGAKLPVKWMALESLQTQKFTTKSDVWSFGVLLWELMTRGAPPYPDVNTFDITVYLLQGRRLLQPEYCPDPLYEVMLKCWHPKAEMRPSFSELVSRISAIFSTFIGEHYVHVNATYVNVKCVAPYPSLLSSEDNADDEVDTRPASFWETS

B1: huAbF46-H4-A1: affinity-matured humanized anti-c-Met antibody, L3-1 origin (antibody)
heavy: EVQLVESGGGLVQPGGSLRLSCAASGFTFTDYYMSWVRQAPGKGLEWLGFIRNKANGYTTEYSASVKGRFTISRDNSKNTLYLQMNSLRAEDTAVYYCARDNWFAYWGQGTLVTVSSASTKGPSVFPLAPSSKSTSGGTAALGCLVKDYFPEPVTVSWNSGALTSGVHTFPAVLQSSGLYSLSSVVTVPSSSLGTQTYICNVNHKPSNTKVDKKVEPKSCDCH[human IgG1 Fc not given here]
light: DIQMTQSPSSLSASVGDRVTITCKSSQSLLASGNQNNYLAWHQQKPGKAPKMLIIWASTRVSGVPSRFSGSGSGTDFTLTISSLQPEDFATYYCQQSYSRPYTFGQGTKVEIKRTVAAPSVFIFPPSDEQLKSGTASVVCLLNNFYPREAKVQWKVDNALQSGNSQESVTEQDSKDSTYSLSSTLTLSKADYEKHKVYACEVTHQGLSSPVTKSFNRGEC
As to B1, the “affinity for c-Met (rank among the four antibodies)” value in test [1] was “highest”. Moreover, in test [2], the “Akt phosphorylation (rank among the four antibodies)” value was “lowest”. The “c-Met degradation degree (rank among the four antibodies)” value in test [3] is “lowest”.
